Data: the supplement of paper PMC11417369
Some of the results follow.

These sequences were tested on PF3D7_0420300 AP2 domain 1 (GST-tagged) (assay: gcPBM binding intensity (ln(normalized median fluorescence intensity)); higher = stronger DNA binding).
Summary of the method: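 Plasmodium falciparum DNA-binding domains carrying a GST tag were expressed in E. coli and applied for 1 h, at about 25 μg on average, to an Agilent 4 × 180k array. The array held primer-extended double-stranded 36-bp intergenic genomic probes together with negative controls, and binding took place in 1× PBS with 1% milk, 0.2 mg/ml BSA, 0.5% salmon testes DNA and 0.03% Triton X-100. An Alexa488 anti-GST antibody detected bound protein, and the array was scanned at 488 nm. Binding intensity is taken as the highest Masliner-normalised natural-log median intensity across replicate spots of either probe orientation.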

Row | Sequence | gcPBM binding intensity (ln)
1 | ATGGAATATTTCATGATTTTTTTAATTTTTTTATTG [XGTACX_negctrl_site55] | 9.12
2 | TATCTTTTTTTTAATACACACAAATTTATGAAAGTA [CACACA_site7879] | 9.2
3 | ATTTTCATATTTTTATGTACATATTATAAGAATATA [XGTACX_site3691] | 9.12
4 | TGTCTTTATATATATTTATTTTTTAGTATTACATAA [CACACA_negctrl_site21] | 9.4
5 | TGAAAAAAGAAAAATACACACATATAATATAATATA [CACACA_site2255] | 9.7
6 | TTTTTTATATTGATATTTATTAAATATGAAATGTTA [GTGCAC_negctrl_site405] | 8.78
7 | TTATATAAGATATTTCGTACACATTCAAAAATTATG [XGTACX_site7375] | 9.03
8 | AATAAAATATAAGGGGGTACGGAGAAAGGATACTAT [XGTACX_site7733] | 9.95
9 | CATACACCCCAACACACACACACACCCATATATAAT [CACACA_site8097] | 10.4
10 | AAAAAAAAAAAAAAAAGTACATATATTATATATATA [XGTACX_site2983] | 9.05
11 | CACGCACGCACATACACACACATACACATATAAATA [CACACA_site6907] | 9.95
12 | ATGTTGTTCATAAATATATTATTTTTAAATGTACAA [GTGCAC_negctrl_site507] | 9.02
13 | GTATTTAGATGATTAACACACATATGTGTATTAATA [CACACA_site6733] | 9.41
14 | ATATATTCACGTTAATGTACACATAATAAATTATAT [XGTACX_site5481] | 9.26
15 | ATATATATTATTGAATGTACATAATTATTTAATAGT [XGTACX_site4971] | 9.37
16 | AATTATATTGGTTGTAGTACTAAAAGTAAGTTAATG [XGTACX_site33] | 9.2
17 | TATTCACTGATATGTTGTACATAAAAAAAATTAAAT [XGTACX_site6128] | 9.09
18 | TATTTACACAAAATAAAATATATTATATATATATAT [TGCATGCA_negctrl_site381] | 8.93
19 | TTGCACAGATTAATCAAAAATTTTAAACCAAATATA [XGTACX_negctrl_site38] | 8.97

Row | Sequence | gcPBM binding intensity (ln)
20 | AGAATAGAATAAAAAACACACATTTACAACATTATT [CACACA_site3894] | 9.76
21 | TATTTATACATAGGTGGTACTACTTTAAACAAAAAA [XGTACX_site5062] | 9.06
22 | TATATGGAGAGATATGCACACTGTATGAATGCCCCC [CACACA_site8853] | 10.1
23 | AAATAAATAATATTCACACATAAAAAAAATGGAGTT [CACACA_site4525] | 9.47
24 | TTATATTTTTACAAGAGTACATATATATATATATAT [XGTACX_site5383] | 9.23
25 | GTGCAATATTTATTTTGTACATATTTATCAATAAAC [XGTACX_site8297] | 9.07
26 | ACATCGATTTATATTCTGCACTGAAGAAACTACAAC [GTGCAC_site9967] | 9.32
27 | TTTATTTGATGAACATGTACAAAAAAACAAAGAACA [XGTACX_site823] | 9.42
28 | TCAAACCAGTTGATGTGTACACATATAGTAATAATT [XGTACX_site6014] | 9.5
29 | ATTAAATATATTAAATGTACATAATATATATATATA [XGTACX_site5032] | 9.15
30 | TGATATTTTATTATTAAAATATATACATATATATAT [CACACA_negctrl_site1456] | 9.26
31 | ATAAAAATAAAATGGACACACATATATACCTATTTG [CACACA_site5761] | 9.7
32 | AAGAAAAAAAAAAAAAAAGATACTTTTTTAAAACTA [TGCATGCA_negctrl_site13] | 8.83
33 | ATATAAAGAAAAGGAACACACAAATATATATATATA [CACACA_site463] | 9.57
34 | ATATATTATTTTAAATGTACTCATAATAGAAATGTC [XGTACX_site40] | 9.14
35 | CACACAGGTAAAAAGGTGCAGTTGAAATATTCCTCA [GTGCAC_site9730] | 9.12
36 | GTGCTTATTTATACATGTACAAATGATAAGTTTGTA [XGTACX_site169] | 9.26
37 | TAAATATATTCATAAAGTACAAAGCAAAATTGTCTA [XGTACX_site7274] | 9.23
38 | GAAATAAATATATATGCATGTACTTTAATATTATTA [TGCATGCA_site904] | 9.13

Row | Sequence | gcPBM binding intensity (ln)
39 | TTTTTTCTTTTATGTGAAATGTAATATTGTTATATA [GTGCAC_negctrl_site715] | 9.11
40 | AGGTGATTGATATATACACACATACCTATATTTATA [CACACA_site7348] | 9.62
41 | TGTTTATTTAATAATATTTTTTTTTTTATTATATTA [XGTACX_negctrl_site56] | 9.01
42 | TTATTAAAATATTCTAGTACATATAAAAGGAGAACA [XGTACX_site4374] | 9.28
43 | AGCTCTCAAAATTATTCACACGTGTCCTGTTATATA [CACACA_site5415] | 9.73
44 | ATATTTCATTAATGAACACACAAAGAGGTATATAAA [CACACA_site1519] | 9.51
45 | ATATTTAAAAATATAGTGCAATTATTCTAATGTGTT | 9.15
46 | AAATAAAAGGTTGAGAGTACATTTTTGTGTATGTAT [XGTACX_site5547] | 9.41
47 | AAAAAAAAAATACAACAAAGTTAAATAAATAAATAA [GTGCAC_negctrl_site402] | 9.34
48 | AAGAAAAAATATAATAATAATAAAATATATATAATA [TGCATGCA_negctrl_site475] | 9.29
49 | TTTGTTTTTCATAGTGCACACATAACCAAAAATAGT [CACACA_site9030] | 9.29
50 | TATTGTTTTGATTGATGTACATGTTTAAAATATATA [XGTACX_site8430] | 9.28
51 | AAAGTAAATTTAAGCACACACAACGAACTTTTATAC [CACACA_site7008] | 9.93
52 | TAATCTATTTATATGTGTACCTATTTAGAAATGACA [XGTACX_site5709] | 9.03
53 | TTTTTTATTGTGATACGTATATTATTTTTTGATAAA [CACACA_negctrl_site1] | 9.2
54 | TATATTTACATTGTAACACACATGAAATATATATAT [CACACA_site61] | 9.36
55 | TGTTGTAAATATGTTTGTACATAAATATATTATTTA [XGTACX_site5442] | 9.05
56 | AAAAAAAAATAATATTGTACACACATAAATTCTTTG [XGTACX_site4315] | 9.36
